Test results as given in US11000038B2, “Pyridone compounds and agricultural and horticultural fungicides containing the same as active ingredients” (priority 2017, dated 2021).

Experiments:
[1] = system: barley powdery mildew fungi (Blumeria graminis f. sp. hordei); test: Test Example D: barley powdery mildew, spray treatment of barley plants; conditions: spray treatment of barley plants; control value=100{1-(n/3)}
[2] = system: wheat brown rust fungi (Puccinia recondita); test: Test Example E: wheat brown rust, spray treatment of wheat plants; format: in vivo; conditions: spray treatment of wheat plants; control value=100{1-(n/3)}
[3] = system: gray mold fungi (Botrytis cinerea); test: Test Example B: tomato gray mold, spray treatment of tomato plants; conditions: spray treatment of tomato plants; control value=100{1-(n/3)}
[4] = system: grape downy mildew fungus (Plasmopara viticola); test: Test Example G: grape downy mildew, spray treatment of grape plants; conditions: 250 ppm spray, 2.5 ml/pot, grape Neomuscat; 7 to 10 days from inoculation
[5] = system: cabbage Alternaria sooty spot fungi (Alternaia brassicicola); test: Test Example C: cabbage Alternaria sooty spot, spray treatment of cabbage plants; format: in vivo; conditions: spray treatment of cabbage plants; control value=100{1-(n/3)}
Text: [Test Example C] Cabbage Alternaria Sooty Spot
Test plants (cabbage variety: Shikidori) were cultivated until the cotyledons extended after the sowing of seeds.
<Control Value> Control value=100{1−(n/3)}

SMILES | Test D control value class (barley powdery mildew) [1] | Test E control value class (wheat brown rust) [2] | Test B control value class (tomato gray mold) [3] | Test G control value class (grape downy mildew) [4] | Test C control value class (cabbage Alternaria sooty spot) [5]
COc1cc(F)c(-c2c(Br)c(=O)c(Cl)cn2C2CCCCC2)c(F)c1 [Compound 27] | H (H shows the control value of more than 50%) | H (H shows the control value of more than 50%) | H (H shows the control value of more than 50%) | H (H shows the control value of more than 50%) | H (H shows the control value of more than 50%)
O=c1c(Br)cn(C2CCCCC2)c(-c2c(F)cc(F)cc2F)c1Cl [Compound 29] | L (L shows the control value of 50% or less) | H (H shows the control value of more than 50%) | L (L shows the control value of 50% or less) | L (L shows the control value of 50% or less) | H (H shows the control value of more than 50%)
O=c1c(Br)cn(C2CCCCC2)c(-c2c(F)cc(F)cc2F)c1Br [Compound 30] | H (H shows the control value of more than 50%) | H (H shows the control value of more than 50%) | H (H shows the control value of more than 50%) | L (L shows the control value of 50% or less) | H (H shows the control value of more than 50%)
O=c1c(Cl)cn(-c2ccccc2F)c(-c2c(F)cc(F)cc2F)c1Br [Compound 31] | H (H shows the control value of more than 50%) | H (H shows the control value of more than 50%) | H (H shows the control value of more than 50%) | L (L shows the control value of 50% or less) | H (H shows the control value of more than 50%)
COc1cc(F)c(-c2c(Cl)c(=O)c(Cl)cn2-c2ccccc2F)c(F)c1 [Compound 32] | L (L shows the control value of 50% or less) | H (H shows the control value of more than 50%) | H (H shows the control value of more than 50%) | L (L shows the control value of 50% or less) | H (H shows the control value of more than 50%)
O=c1c(Cl)cn(-c2cccnc2Cl)c(-c2c(F)cc(F)cc2F)c1Br [Compound 34] | H (H shows the control value of more than 50%) | H (H shows the control value of more than 50%) | H (H shows the control value of more than 50%) | H (H shows the control value of more than 50%) | H (H shows the control value of more than 50%)
O=c1c(Cl)cn(-c2cccnc2Cl)c(-c2c(F)cc(F)cc2F)c1Cl [Compound 35] | H (H shows the control value of more than 50%) | H (H shows the control value of more than 50%) | H (H shows the control value of more than 50%) | H (H shows the control value of more than 50%) | H (H shows the control value of more than 50%)
O=c1c(Br)cn(-c2cccnc2Cl)c(-c2c(F)cc(F)cc2F)c1Cl [Compound 36] | H (H shows the control value of more than 50%) | H (H shows the control value of more than 50%) | H (H shows the control value of more than 50%) | H (H shows the control value of more than 50%) | H (H shows the control value of more than 50%)
